Binding data for five substances are collected here from paper PMC5015872.

The chains behind the UniProt entries cited, without tags or fusion partners.
UniProt Q9QR71: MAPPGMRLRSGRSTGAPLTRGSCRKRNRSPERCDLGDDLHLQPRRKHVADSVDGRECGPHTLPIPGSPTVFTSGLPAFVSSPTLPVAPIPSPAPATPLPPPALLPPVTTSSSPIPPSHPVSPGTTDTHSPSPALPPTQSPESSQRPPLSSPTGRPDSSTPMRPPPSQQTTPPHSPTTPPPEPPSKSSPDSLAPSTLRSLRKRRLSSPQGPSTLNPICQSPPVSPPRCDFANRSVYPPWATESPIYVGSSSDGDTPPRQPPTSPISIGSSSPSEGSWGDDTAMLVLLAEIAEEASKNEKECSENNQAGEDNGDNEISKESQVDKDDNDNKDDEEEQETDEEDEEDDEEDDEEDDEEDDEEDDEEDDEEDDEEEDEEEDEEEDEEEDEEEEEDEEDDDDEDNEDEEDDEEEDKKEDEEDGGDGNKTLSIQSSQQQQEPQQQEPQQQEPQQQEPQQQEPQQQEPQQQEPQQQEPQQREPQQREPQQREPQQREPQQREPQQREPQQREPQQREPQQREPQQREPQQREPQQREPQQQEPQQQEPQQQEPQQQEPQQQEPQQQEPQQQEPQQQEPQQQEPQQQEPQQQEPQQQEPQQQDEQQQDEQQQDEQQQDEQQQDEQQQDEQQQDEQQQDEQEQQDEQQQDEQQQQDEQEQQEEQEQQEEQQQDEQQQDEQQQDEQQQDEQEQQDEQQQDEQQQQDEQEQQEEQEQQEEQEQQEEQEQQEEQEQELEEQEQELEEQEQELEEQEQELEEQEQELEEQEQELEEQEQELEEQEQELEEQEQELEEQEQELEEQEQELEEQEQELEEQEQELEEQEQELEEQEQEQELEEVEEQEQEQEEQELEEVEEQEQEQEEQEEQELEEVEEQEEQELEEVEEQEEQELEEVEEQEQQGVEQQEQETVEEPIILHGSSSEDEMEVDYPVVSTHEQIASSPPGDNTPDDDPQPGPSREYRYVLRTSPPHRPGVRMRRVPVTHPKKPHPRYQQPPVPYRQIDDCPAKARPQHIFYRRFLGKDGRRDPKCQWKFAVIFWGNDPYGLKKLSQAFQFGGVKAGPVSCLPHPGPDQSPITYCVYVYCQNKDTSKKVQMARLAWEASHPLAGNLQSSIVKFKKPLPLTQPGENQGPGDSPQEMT
UniProt Q15910: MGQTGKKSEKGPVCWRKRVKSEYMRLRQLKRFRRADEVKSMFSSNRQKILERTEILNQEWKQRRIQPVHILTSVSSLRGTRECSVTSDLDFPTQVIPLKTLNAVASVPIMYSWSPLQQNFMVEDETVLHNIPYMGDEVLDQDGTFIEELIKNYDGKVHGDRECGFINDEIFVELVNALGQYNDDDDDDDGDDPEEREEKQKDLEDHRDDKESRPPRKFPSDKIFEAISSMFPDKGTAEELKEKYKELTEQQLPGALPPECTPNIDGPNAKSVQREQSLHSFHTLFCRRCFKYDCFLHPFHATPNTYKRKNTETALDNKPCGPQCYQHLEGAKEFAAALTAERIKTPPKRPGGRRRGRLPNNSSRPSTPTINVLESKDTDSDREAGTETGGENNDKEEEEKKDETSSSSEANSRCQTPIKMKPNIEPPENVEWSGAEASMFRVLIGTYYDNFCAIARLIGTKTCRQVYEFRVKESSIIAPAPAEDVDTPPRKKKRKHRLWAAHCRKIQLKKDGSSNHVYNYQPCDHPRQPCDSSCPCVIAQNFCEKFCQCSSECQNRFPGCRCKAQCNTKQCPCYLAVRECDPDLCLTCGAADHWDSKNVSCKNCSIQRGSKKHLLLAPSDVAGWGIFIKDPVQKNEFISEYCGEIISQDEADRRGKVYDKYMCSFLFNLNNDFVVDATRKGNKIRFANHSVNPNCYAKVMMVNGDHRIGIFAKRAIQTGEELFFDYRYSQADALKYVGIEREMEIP
UniProt P35226: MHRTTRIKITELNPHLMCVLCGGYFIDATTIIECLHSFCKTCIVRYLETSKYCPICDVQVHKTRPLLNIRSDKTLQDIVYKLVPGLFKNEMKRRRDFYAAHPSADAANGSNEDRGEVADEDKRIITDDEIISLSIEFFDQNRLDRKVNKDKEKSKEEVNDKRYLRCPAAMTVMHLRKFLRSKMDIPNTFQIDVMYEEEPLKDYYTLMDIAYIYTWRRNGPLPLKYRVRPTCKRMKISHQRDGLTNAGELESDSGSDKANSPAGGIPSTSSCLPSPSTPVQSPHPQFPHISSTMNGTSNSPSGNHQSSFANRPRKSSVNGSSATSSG
UniProt O75530: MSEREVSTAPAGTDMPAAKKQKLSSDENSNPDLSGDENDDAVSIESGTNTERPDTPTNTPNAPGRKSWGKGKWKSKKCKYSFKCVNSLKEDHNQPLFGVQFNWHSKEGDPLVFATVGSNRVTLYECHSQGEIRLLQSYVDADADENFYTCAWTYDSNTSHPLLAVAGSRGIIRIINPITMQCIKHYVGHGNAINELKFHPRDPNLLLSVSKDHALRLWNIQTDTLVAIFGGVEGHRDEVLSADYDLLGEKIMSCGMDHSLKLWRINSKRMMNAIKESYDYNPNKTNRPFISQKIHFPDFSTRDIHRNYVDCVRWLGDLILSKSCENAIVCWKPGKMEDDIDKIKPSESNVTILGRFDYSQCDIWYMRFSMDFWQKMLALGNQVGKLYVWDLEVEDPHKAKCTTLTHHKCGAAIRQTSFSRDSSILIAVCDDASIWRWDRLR
UniProt Q99496: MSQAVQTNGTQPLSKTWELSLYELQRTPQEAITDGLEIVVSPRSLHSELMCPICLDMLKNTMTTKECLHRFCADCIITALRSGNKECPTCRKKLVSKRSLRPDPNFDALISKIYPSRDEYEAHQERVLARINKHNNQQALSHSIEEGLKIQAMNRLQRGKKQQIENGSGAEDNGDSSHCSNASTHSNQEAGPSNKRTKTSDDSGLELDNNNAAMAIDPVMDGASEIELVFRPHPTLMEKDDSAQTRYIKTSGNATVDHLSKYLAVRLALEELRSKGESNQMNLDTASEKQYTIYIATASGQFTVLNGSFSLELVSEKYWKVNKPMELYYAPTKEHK
UniProt Q15022: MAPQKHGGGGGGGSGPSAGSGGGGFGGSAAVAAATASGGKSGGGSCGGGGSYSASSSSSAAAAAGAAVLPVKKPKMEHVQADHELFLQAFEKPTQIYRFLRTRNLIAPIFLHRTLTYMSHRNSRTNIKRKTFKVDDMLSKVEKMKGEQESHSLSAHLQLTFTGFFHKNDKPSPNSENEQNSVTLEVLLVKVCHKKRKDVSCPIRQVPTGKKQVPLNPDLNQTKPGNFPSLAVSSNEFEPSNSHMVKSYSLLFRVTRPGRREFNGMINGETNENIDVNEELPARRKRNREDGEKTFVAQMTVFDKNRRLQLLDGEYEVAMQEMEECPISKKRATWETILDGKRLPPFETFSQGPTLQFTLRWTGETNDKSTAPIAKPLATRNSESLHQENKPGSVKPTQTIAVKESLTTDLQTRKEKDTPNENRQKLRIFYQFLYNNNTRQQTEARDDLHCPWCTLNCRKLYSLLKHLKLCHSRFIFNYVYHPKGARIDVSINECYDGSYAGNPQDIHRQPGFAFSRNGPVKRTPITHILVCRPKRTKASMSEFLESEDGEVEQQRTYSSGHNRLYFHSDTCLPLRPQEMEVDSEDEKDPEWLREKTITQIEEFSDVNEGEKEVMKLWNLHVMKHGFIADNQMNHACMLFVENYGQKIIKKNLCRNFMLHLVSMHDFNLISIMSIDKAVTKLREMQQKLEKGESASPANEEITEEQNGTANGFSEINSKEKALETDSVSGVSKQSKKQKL

The target in assay [1] is V5-tagged latency-associated nuclear antigen (LANA) (Kaposi's sarcoma-associated herpesvirus (KSHV)) (UniProt Q9QR71). In words: co-IP; 293T cells expressing LANA-V5 and a 3xFLAG-tagged PRC factor; immunoprecipitation with V5 antibody, blots with V5 and FLAG antibodies; 0.5% NP40 lysis buffer (10mM Tris-HCl pH 8.0, 100mM NaCl, 1mM EDTA), 4°C.
For assay [2], the target named is EZH2, endogenous in iSLK cells (human (endogenous in iSLK)) (UniProt Q15910). Description: co-IP; lysates of de novo KSHV infected iSLK cells (72 hpi); immunoprecipitation with anti-EZH2 rabbit antibody or normal rabbit IgG, blots with anti-LANA and anti-EZH2; 0.5% NP40 lysis buffer, 4°C.

No constants are given. Whether binding was seen depends on the method and setting. In cells and extracts the contact can be indirect. Some results given as binding are weak or reduced against the parent protein; the word gives no strength.

For the substance “3xFLAG-tagged BMI-1 (from UniProt P35226 1-326)”, the binding entry in assay [1] is recorded as “no binding”. The same measure, in the same setting: as for “3xFLAG-tagged EED (from UniProt O75530 1-441)”, the entry is “binds”; as for “3xFLAG-tagged RING1B (from UniProt Q99496 1-336)”, “no binding”; as for “3xFLAG-tagged SUZ12 (from UniProt Q15022 1-739)”, “binds”. On to “latency-associated nuclear antigen (LANA) expressed from the KSHV genome in infected iSLK cells (from UniProt Q9QR71 1-1129)”, for which the binding result in assay [2] was “binds”.
